Experimental data taken from PubChem BioAssay AID1030 (National Center for Advancing Translational Sciences (NCATS), 2008).
In all, about 220,000 compounds went through this assay and about 16,000 (7.3%) were called active. Inconclusive means that the source gave no clear call. Such entries were picked first, then a sample of the others. The call rests on the fitted dose curve; in most records, active means well fitted inhibition curve with a large enough effect (not every such curve was filed as active); inconclusive means small, poorly fitted or top-dose-only effect, or another doubt; inactive means no such curve, though single readings can be large or run the other way. Where the call is inconclusive, the potency comes from a doubtful curve fit.

Target: Aldehyde dehydrogenase 1A1 (Homo sapiens) (UniProt P00352)
Assay: qHTS Assay for Inhibitors of Aldehyde Dehydrogenase 1 (ALDH1A1)
Conditions: Purified ALDH1A1, NADH fluorescence, propionaldehyde substrate; series mostly up to 75.3 µM
Potency means the concentration at half of the fitted maximal effect; tags describe the fitted curve by direction and shape.

Chain of UniProt P00352 (P00352 whole entry, looked up): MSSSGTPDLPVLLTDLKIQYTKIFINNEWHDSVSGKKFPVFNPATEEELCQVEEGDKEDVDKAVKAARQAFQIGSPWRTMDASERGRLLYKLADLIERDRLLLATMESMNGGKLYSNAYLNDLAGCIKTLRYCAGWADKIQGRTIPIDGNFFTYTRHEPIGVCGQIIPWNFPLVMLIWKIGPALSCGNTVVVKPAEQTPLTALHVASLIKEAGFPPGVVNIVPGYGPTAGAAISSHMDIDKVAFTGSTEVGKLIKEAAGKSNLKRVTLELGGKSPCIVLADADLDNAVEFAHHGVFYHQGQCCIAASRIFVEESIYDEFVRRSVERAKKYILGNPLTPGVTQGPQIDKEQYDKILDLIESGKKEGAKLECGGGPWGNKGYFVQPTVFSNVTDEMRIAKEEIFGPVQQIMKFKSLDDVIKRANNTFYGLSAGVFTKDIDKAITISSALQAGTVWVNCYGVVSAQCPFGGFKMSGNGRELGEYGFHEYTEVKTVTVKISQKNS

Potency, inactive:
Cc1sc2ncnc(SCC(=O)NCC(C)C)c2c1C
COCc1cc(CN2CCN(Cc3ccsc3)C(CCO)C2)ccc1OC (centres undefined)
CC(NC(=O)COC(=O)/C=C/c1ccco1)c1ccccc1 (centres undefined)
Cc1ccccc1Nc1nc(Nc2ccccc2C)nc(SC2=NCCS2)n1
COc1ccc(NC(=O)Nc2ccc(F)cc2)c(C)c1
CC(=O)N(C(C)=O)n1c(/C=C/c2ccc([N+](=O)[O-])cc2)nc2ccccc2c1=O
O=C(NC1CCCCC1)C1CCN(c2cnccn2)CC1
O=C(/C=C/c1ccc2c(c1)OCO2)NCCSCc1ccc(Cl)cc1
O=C(Nc1ccc2c(c1)OCCO2)C1CCN(c2ncccn2)CC1
N#C/C(=C/c1ccc(-c2cc(C(=O)O)cc(C(=O)O)c2)o1)c1nc2ccccc2s1
Cc1cc(N2CCCC2=O)cc(C)c1S(=O)(=O)Nc1c(C)nn(C)c1C
CC1=C(C(=O)Nc2ccc(C)cc2C)C(c2ccc(Cl)cc2)n2nc(C(=O)OC(C)C)nc2N1 (centres undefined)
Cn1c(C(=O)NC2CCCCC2)cc2sccc21
Cc1ccc(-n2nnc3c(SCC(=O)NCc4ccco4)ncnc32)cc1
CCCCN(CC)CCCNC(=O)c1ccc(CSc2nc3ccncc3[nH]2)cc1
C=C1c2cccc(C(F)(F)F)c2O[C@H](C(=O)OCC)[C@@H]1CCC(C)C
O=C(COc1ccc([N+](=O)[O-])cc1)NCc1cccnc1
O=C(Oc1c(CN2CCOCC2)cc(Cl)c2cccnc12)c1ccccc1

Potency, active:
CCc1nnc(N/N=C/c2ccc(N3CCC(C)CC3)c([N+](=O)[O-])c2)n1N 22.4 µM
COC(=O)c1cccc(NC(=O)CCc2ccccc2)c1 25.1 µM
Cc1ccccc1C(=O)NNC(=S)Nc1cccc(C(F)(F)F)c1 17.8 µM
COc1ccccc1NC(CC(=O)c1ccccc1)C(=O)OCC(=O)c1ccc(C)cc1 (centres undefined) 10 µM
C=CCNC(=O)NC(=O)COC(=O)/C(C#N)=C/c1ccc(OC)cc1 25.1 µM
O=C(c1ccc(Br)cc1)c1cc([N+](=O)[O-])ccc1N1CCCCC1 2.82 µM
O=C(CN1CCCCCC1)Nc1ccc(F)c(F)c1 22.4 µM
COc1cc(OC)c(OC)cc1NC(=O)CC1COc2ccccc2O1 (centres undefined) 3.55 µM
COc1ccc(-c2csc(NC(=O)C3CCCO3)n2)cc1 (centres undefined) 22.4 µM
COc1ccc(C(=O)N/C(=C\c2cccc([N+](=O)[O-])c2)C(=O)Nc2cccc(C(=O)O)c2)cc1 12.6 µM
CC1(c2ccccc2)NC(=O)N(CCOc2ccccc2)C1=O (centres undefined) 22.4 µM
CCCc1nc2sc3c(SCC(=O)NCc4ccco4)ncnc3c2c2c1CCC2 25.1 µM
CC(=O)N1CCC(=NNc2ncc(C(F)(F)F)cc2Cl)CC1 15.8 µM

Potency, inconclusive:
C[n+]1cnc(-c2ccccc2)cc1-c1ccccc1 39.8 µM [inhibitor, single point]
Cc1ccc(C2=NN(C(=O)CSc3nc(N)cc(N)n3)C(c3ccco3)C2)cc1 (centres undefined) 39.8 µM [inhibitor, single point]
COc1ccc(-c2nnc(-c3ccc(N)cc3)o2)cc1 35.5 µM [inhibitor, partial curve]
CCc1ccccc1Cn1c(=O)oc2cccnc21 25.1 µM [inhibitor, partial curve]
COc1ccccc1NC(=O)c1cc(Cl)nnc1Cl 25.1 µM [inhibitor, single point]
CC(C)(C)SCCNS(=O)(=O)c1ccc(Cl)cc1 17.8 µM [inhibitor, partial curve]
CC(C)(C)N(Cc1ccccc1)C(=O)CSc1nc2ccccc2c(=O)[nH]1 17.8 µM [inhibitor, partial curve]
COc1ccc(/C=C/C(=O)c2ccc(O)cc2O)cc1 39.8 µM [inhibitor, single point]
COc1ccc(C(=O)/C=C/C(=O)N(CC(=O)NC2CCCCC2)CC2CCCO2)c(O)c1 (centres undefined) 28.2 µM [inhibitor, single point]
CCCN(c1ccc(C(C)C)cc1)S(=O)(=O)c1c(C)[nH]c(=O)[nH]c1=O 39.8 µM [inhibitor, single point]
Cc1cc(N2CCN(C(=O)c3ccco3)CC2)n2nc(-c3cccc(Cl)c3)cc2n1 23.8 µM [inhibitor, partial curve]
COC(=O)CCCC1=CC2=C(c3ccccc3)C(=O)C(C)(OC(=O)C3CCCC3)C(=O)C2=CN1c1ccc(OC)cc1 (centres undefined) 0.562 µM [inhibitor, partial curve]
Cc1ccc(OCCn2cc(/C=C(\C#N)C(=O)NCC3CCCO3)c3ccccc32)cc1C (centres undefined) 15 µM [inhibitor, partial curve]
Cc1ccc(C(=O)NCCc2sc(C)nc2C)cc1 39.8 µM [inhibitor, single point]
FC(F)(F)c1cc(-c2cccs2)nc(-n2cc(Cl)cn2)n1 39.8 µM [inhibitor, single point]
Cc1nc(N2CCCCC2)c2c(-c3cccs3)csc2n1 22.4 µM [inhibitor, partial curve]
c1ccc2nc(N3CCCC3)c(N3CCCC3)nc2c1 39.8 µM [inhibitor, single point]
CCN(CC)C(=O)C1CCCN(Cc2cccc(F)c2)C1 (centres undefined) 39.8 µM [inhibitor, single point]
CN(C)c1ncccc1-c1nc2ccccc2s1 35.5 µM [inhibitor, single point]
CCCC1CCC(=NNS(=O)(=O)c2ccc(C)c([N+](=O)[O-])c2)CC1 (centres undefined) 7.94 µM [inhibitor, full curve]
Cn1c(=O)cnc2cnc(OCc3ccccc3)nc21 37.7 µM [inhibitor, single point]
O=C(Nc1ccccc1)c1sc2cc(C(F)(F)F)cnc2c1-c1cccs1 31.6 µM [inhibitor, partial curve]
COCCn1c(=O)c(-c2ccc(Cl)cc2)nc2cncnc21 31.6 µM [inhibitor, single point]
CCS(=O)(=O)N1Cc2ccccc2CC1C(=O)OCC(=O)Nc1ccc(C)cc1 (centres undefined) 28.2 µM [inhibitor, single point]
COCc1cc(C)n(CC(=O)N2CCCC2)c(=O)c1C#N 28.2 µM [inhibitor, partial curve]
Cc1cc(C)n(-c2nc3c(c(=O)[nH]c(=O)n3C)n2CCc2ccccc2)n1 17.8 µM [inhibitor, partial curve]
Nc1cc(F)ccc1N1CCCCCC1 25.1 µM [inhibitor, single point]
O=c1[nH]cnc2c1sc1nc3c(c(-c4ccc(Cl)cc4)c12)CCC3 20 µM [inhibitor, partial curve, poor fit]
CCCC(=O)Nc1nn(C)c2nc3cc(C)ccc3cc12 28.2 µM [inhibitor, partial curve]
COc1ccc(CCn2c(N)c(C(=O)NCc3ccco3)c3nc4ccccc4nc32)cc1 28.2 µM [inhibitor, partial curve]
Cc1c(C(=O)O)oc2c3c(ccc12)OCCO3 25.1 µM [inhibitor, partial curve]
Nc1ccc2c(c1)sc1ccccc12 28.2 µM [inhibitor, partial curve]
Cc1ccc(S(=O)(=O)NCCCCCC(=O)N(C)C)cc1 25.1 µM [inhibitor, partial curve]
COC(=O)c1ccccc1NC(=S)NC(=O)C1CC1 39.8 µM [inhibitor, single point]
Nc1nonc1-c1nc2ccccc2n1Cc1ccc(F)cc1 39.8 µM [inhibitor, single point]
CCOC(=O)N1CCN(C(=O)c2ccc3c(=O)n(-c4ccc(F)cc4)c(=S)[nH]c3c2)CC1 39.8 µM [inhibitor, single point]
O=c1c(-c2cc(F)cc(F)c2)nc2cnc(N3CCNCC3)nc2n1Cc1cccs1 22.4 µM [inhibitor, partial curve]
COc1cccc(C2NC(=O)NC(C)=C2C(=O)Nc2cccc(C)c2C)c1 (centres undefined) 11.2 µM [inhibitor, partial curve]
CC(C)CN1C(=O)c2ccc(NC(=O)c3ccco3)cc2C1=O 28.2 µM [inhibitor, partial curve]
CN(C)c1ccc(NC(=O)c2ccc3c(c2)nnn3C)cc1 39.8 µM [inhibitor, single point]
CCn1ncc(C2=NOC(C(=O)NCc3ccccc3)C2)c1C (centres undefined) 39.8 µM [inhibitor, single point]
N#Cc1c(-c2ccc(F)cc2)cc(-c2cccnc2)nc1N 25.1 µM [inhibitor, partial curve]
CC(C)OP(=O)(OC(C)C)C(Nc1cccc(C(=O)O)c1)c1ccccc1 (centres undefined) 37.7 µM [inhibitor, single point]
